The supplement of paper PMC10126150
Sequences with one replicate were seen in a single cluster, so their values are uncertain.

Tested on: ATP
Experiment: switch fluorescence ratio, 500 uM ATP over buffer (Cy3 cluster intensity, sum of 5 cycles each) (fold (ratio)); higher = stronger signal-on switching upon ATP binding; sequences stand for … in TCGTCGGCAGCGTCAGATGTGTATAAGAGACAGTTTTTTTTTTTTTTTTTTTTTTTTT…TC
Conditions: aptamer strand: ATP DNA aptamer (quencher-CACCTGGGGGAGTATTGCGGAGGAAGG + anchor), 100 nM annealed; ATP concentration: 500 uM; one replicate
How it was run: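 Values give the fluorescence ratio for each switch-domain sequence, averaged from per-cluster ratios of summed target-cycle to summed buffer-cycle Cy3 intensity. The Cy3-labelled switching-strand clusters sat on a modified Illumina MiSeq flow-cell, were annealed to 100 nM quencher-labelled ATP aptamer, and were imaged in selection buffer, then after 15 min with 500 uM ATP at 22 °C. Five cycles ran with NaOH stripping and re-annealing between them, and clusters outside 100-1000 RFU were excluded.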
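Also: ATP exposure 15 min at 22 °C before imaging.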

Row | Sequence | switch fluorescence ratio
1 | CATGATCA | 0.955
2 | CATGATGACT | 1.03
3 | CATGCATGGG | 1.02
4 | CATGCGTAGG | 0.984
5 | CATGCTGTTT | 0.997
6 | CATGGAAGAT | 0.997
7 | CATGGAATCA | 1
8 | CATGGAGAGT | 0.983
9 | CATGGATGGG | 1.01
10 | CATGGCAGGT | 1.02
11 | CATGGCCCCG | 1.01
12 | CATGGCCTAA | 1.02
13 | CATGGGAGGA | 0.994
14 | CATGGTGCGT | 1.03
15 | CATGGTGTCA | 1.01
16 | CATGTAACG | 1.04
17 | CATGTACCTG | 1.07
18 | CATGTAGCGC | 1.02
19 | CATGTGCGGC | 1
20 | CATGTGGG | 0.992
21 | CATGTTCCAA | 0.991
22 | CATGTTGGAA | 1.01
23 | CATTAAATGA | 1.04
24 | CATTAACGGA | 0.994
25 | CATTAAGATC | 1.01
26 | CATTAATGG | 0.966

Row | Sequence | switch fluorescence ratio
27 | CATTACCAGT | 0.998
28 | CATTACCTAG | 1.07
29 | CATTCAGGAC | 1.04
30 | CATTCGCGTT | 1.45
31 | CATTCGGTTC | 1.09
32 | CATTCGTTCA | 1.03
33 | CATTGACTGC | 1.08
34 | CATTGAGAGA | 1.01
35 | CATTGAGCTA | 1.08
36 | CATTGCTATG | 1.05
37 | CATTGGGCAG | 0.974
38 | CATTTACGA | 1.33
39 | CATTTACGT | 1.03
40 | CATTTCATGA | 0.993
41 | CATTTCGAG | 0.98
42 | CATTTCTTCA | 1.03
43 | CATTTGTCAG | 0.97
44 | CATTTGTGT | 1.02
45 | CATTTTAA | 0.982
46 | CATTTTAGAC | 0.994
47 | CATTTTCACT | 1.02
48 | CATTTTCGCG | 1.03
49 | CATTTTCGGG | 0.982
50 | CATTTTGCCT | 0.979
51 | CATTTTTAAT | 1.01
52 | CCAAAAATAA | 1.08

Row | Sequence | switch fluorescence ratio
53 | CCAAACATCT | 1.01
54 | CCAAACCTTT | 1.25
55 | CCAAACGAGC | 0.923
56 | CCAAAGGGTA | 1.21
57 | CCAAATTAAG | 0.981
58 | CCAAATTTC | 1.01
59 | CCAACACAAC | 1.95
60 | CCAACACATT | 1.09
61 | CCAACAGCCT | 1.24
62 | CCAACCATCT | 1.03
63 | CCAACGTCAT | 2.4
64 | CCAACTAGGC | 1.12
65 | CCAACTATAA | 1.07
66 | CCAAGGTTTG | 0.927
67 | CCAAGTACTG | 1.41
68 | CCAAGTGAAG | 0.971
69 | CCAAGTGGTC | 1
70 | CCAATGAGAC | 1.39
71 | CCAATGTTAG | 1
72 | CCAATTACTG | 1.07
73 | CCACAAATGA | 1.1
74 | CCACATAGTA | 1
75 | CCACATCCGC | 1.51
76 | CCACATGGCG | 1.03
77 | CCACCAACTG | 1.11
78 | CCACCAATAG | 5.29

Row | Sequence | switch fluorescence ratio
79 | CCACCAGTCT | 1.16
80 | CCACCATTCT | 0.984
81 | CCACCCCA | 1.14
82 | CCACCCTGGA | 1.06
83 | CCACCGGCCG | 1.19
84 | CCACGAAATT | 1
85 | CCACGCTTGG | 1.04
86 | CCACGGAAGC | 1.46
87 | CCACGGCAAC | 6.06
88 | CCACGTACTG | 1.85
89 | CCACGTTTT | 0.987
90 | CCACTGAACT | 1.18
91 | CCACTGTCCG | 1.04
92 | CCACTTCTCA | 1.01
93 | CCACTTTCCG | 1.13
94 | CCAGAAGTTG | 0.995
95 | CCAGAATGAG | 1.02
96 | CCAGAATTCA | 1
97 | CCAGACCCAA | 1.14
98 | CCAGAGAGGT | 1.02
99 | CCAGAGTAC | 1.13
100 | CCAGCACTCA | 1.32
101 | CCAGCCGGGT | 1.23
